Paper PMC3722281
Residue numbers refer to the chain shown, from its start. Results are given in words; binding and its absence hold for the method and conditions named. In cells and extracts the contact can be indirect. Some entries that bind do so weakly or less than the wild type. Blank lines part the entries; values can stand above or below the molecule they belong to.

Sequences of proteins named here, by UniProt entry; tags and fusion partners are left off.
UniProt Q64261: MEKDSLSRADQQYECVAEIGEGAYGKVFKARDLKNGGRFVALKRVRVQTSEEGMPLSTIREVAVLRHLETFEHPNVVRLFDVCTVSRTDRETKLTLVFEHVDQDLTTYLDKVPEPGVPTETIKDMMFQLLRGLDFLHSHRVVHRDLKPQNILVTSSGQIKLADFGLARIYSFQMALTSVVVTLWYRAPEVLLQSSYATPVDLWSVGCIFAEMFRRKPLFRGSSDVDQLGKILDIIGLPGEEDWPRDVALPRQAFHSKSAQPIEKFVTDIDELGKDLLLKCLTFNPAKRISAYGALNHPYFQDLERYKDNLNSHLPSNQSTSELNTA

Columns and labels:
Assay in all cases: co-IP; cell lysate mixed with RIPA buffer lacking SDS and deoxycholate, anti-p16 antibody (Santa Cruz) and Protein A/G beads; immunoblot for Cdk4 and Cdk6; MM189 cells expressing ectopic p16 proteins
[1] = biological target: T1, wild type mouse p16 (mouse) (UniProt P51480)
T1 sequence: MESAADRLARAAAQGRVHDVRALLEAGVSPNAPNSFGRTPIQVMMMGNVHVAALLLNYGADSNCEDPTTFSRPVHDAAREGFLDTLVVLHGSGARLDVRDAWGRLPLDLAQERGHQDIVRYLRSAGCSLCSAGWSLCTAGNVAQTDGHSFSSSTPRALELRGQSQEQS

[2] = biological target: T2, mouse p16 D76V mutant (mouse) (UniProt P51480)
T2 sequence: T1 sequence with D76V

[3] = biological target: T3, mouse p16 D66N mutant (mouse) (UniProt P51480)
T3 sequence: T1 sequence with D66N

[4] = biological target: T4, mouse p16 R79L mutant (mouse) (UniProt P51480)
T4 sequence: T1 sequence with R79L

[5] = biological target: T5, mouse p16 E112K mutant (mouse) (UniProt P51480)
T5 sequence: T1 sequence with E112K

[6] = biological target: T6, mouse p16 A12S mutant (mouse) (UniProt P51480)
T6 sequence: T1 sequence with A12S

binding [1]: binds | binding [2]: no binding | binding [3]: no binding | binding [4]: binds weakly | binding [5]: binds | binding [6]: binds
Molecule: Cdk6 (from UniProt Q64261 1-326) (enzyme)

binding [1]: binds | binding [3]: no binding | binding [4]: no binding | binding [5]: binds | binding [6]: binds
B1: Cdk4 (enzyme, UniProt P30285 1-303)
chain: MAATRYEPVAEIGVGAYGTVYKARDPHSGHFVALKSVRVPNGGAAGGGLPVSTVREVALLRRLEAFEHPNVVRLMDVCATSRTDRDIKVTLVFEHIDQDLRTYLDKAPPPGLPVETIKDLMRQFLSGLDFLHANCIVHRDLKPENILVTSNGTVKLADFGLARIYSYQMALTPVVVTLWYRAPEVLLQSTYATPVDMWSVGCIFAEMFRRKPLFCGNSEADQLGKIFDLIGLPPEDDWPREVSLPRGAFAPRGPRPVQSVVPEMEESGAQLLLEMLTFNPHKRISAFRALQHSYLHKEESDAE
